Data from the supplement of paper PMC11417369.
± gives the standard deviation of the averaged measurements. This is one part of the list.

Each sequence was assayed on PfAP2-EXP AP2 domain (GST-tagged) (assay: gcPBM binding intensity (ln(normalized median fluorescence intensity)); higher = stronger DNA binding).
How it was run: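 Plasmodium falciparum DNA-binding domains carrying a GST tag were expressed in E. coli and applied for 1 h, at about 25 μg on average, to an Agilent 4 × 180k array. The array held primer-extended double-stranded 36-bp intergenic genomic probes together with negative controls, and binding took place in 1× PBS with 1% milk, 0.2 mg/ml BSA, 0.5% salmon testes DNA and 0.03% Triton X-100. An Alexa488 anti-GST antibody detected bound protein, and the array was scanned at 488 nm. Binding intensity is taken as the highest Masliner-normalised natural-log median intensity across replicate spots of either probe orientation.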

Sequence	gcPBM binding intensity (ln)
ATATGTTTAAAAATATGTACGTATTATATATTCTAT [XGTACX_site1358]	8.59 ± 0.29
AAGTTTTATATTTATTAAATTTTTTTTTTTCCTTTT [XGTACX_negctrl_site184]	8.1 ± 0.4
TTGTTTATGTGAGAAGTGCATTTTTTCGTTCATGTA	8.61 ± 0.35
ATGTAAGTATAAAATGTGCGCATTGGGAATGAGGAC	9.46 ± 0.5
TAATATATAAATATATGTACATAATAAATAGGATAT [XGTACX_site3661]	8.89 ± 0.45
TTTATATAAGGACATGCATGCTATTATTAAATATAT [TGCATGCA_site1011]	9.82 ± 0.16
ACTTCATAGGTTACCTGTACATATAAGGAGTTATCA [XGTACX_site4110]	8.76 ± 0.51
TACGCGAAATGAATATGTACATATATGAGGGCATAT [XGTACX_site4293]	9.1 ± 0.45
GGAAACCCTCCCAAATGTACTTTTATAAAAAAATAC [XGTACX_site5502]	9.37 ± 0.63
TTTGCCATAAAACACACACACATGTAAACCCCCTTT [CACACA_site1646]	9.52 ± 0.61
ATATAAGTACATATAACACACATATATTATAAGTAT [CACACA_site2647]	8.44 ± 0.26
TATACTCAGAAACACACACACACACCCAAAAAAAAA [CACACA_site4434]	8.66 ± 0.38
ATACATATATAAATATGTACACACATATGTATGATC [XGTACX_site8219]	8.62 ± 0.23
AAAAAAAAAAAAAAAACACACATACACCCAGACACA [CACACA_site5807]	8.76 ± 0.41
GATATAAGGGTATGAAGTACATAAATATTTTATGCT [XGTACX_site1886]	8.54 ± 0.43
TTTTTATTTTTTGTCTGTACATATATAAATTTATTA [XGTACX_site1525]	8.77 ± 0.43
TATGCACGCGAACACACACACACAACTAAAAAATAA [CACACA_site7251]	8.63 ± 0.49
AGAATAGTGGAAAACACACACGTTTGAGATATGGAC [CACACA_site4782]	9.13 ± 0.45
TTATAAAAAGAACAATTAAAAAAAAATAAAATAAAA [XGTACX_negctrl_site398]	8.32 ± 0.57
GCACGTGTGATTAGATGTACATAACATGTATATGTC [XGTACX_site4632]	8.64 ± 0.39
TTTTTATGTTCTATATATATATATATATATATATAT [GTGCAC_negctrl_site306]	10.1 ± 0.44
CACCCACCCACATACACACACATACACATATATATA [CACACA_site1722]	9.3 ± 0.45
ATACATACATATGTATGTACGTATGTATGTATGTAT [XGTACX_site3853]	8.49 ± 0.16

Sequence	gcPBM binding intensity (ln)
CAAATAAAAAAAGTAGCACACATGAATAAAATATAT [CACACA_site3130]	8.96 ± 0.48
CATAATATATATTGAGCATGCTACTATTGTTAGAAA [TGCATGCA_site740]	9 ± 0.31
ACATATAAGATATATACACACATATAAATACATTAA [CACACA_site7763]	8.29 ± 0.4
AAAAAAAAAAACTACACACATACAAATATTTATATA [CACACA_site2574]	8.32 ± 0.59
ATATATATGTATATATGTACATATATGTATATATAT [XGTACX_site4772]	8.66 ± 0.17
ATAATATATGCAAAAACATGCACATAATATGTAAAA [TGCATGCA_site742]	8.48 ± 0.28
ATAATTTTATATAAATGTACATACATTTTTATTATA [XGTACX_site7368]	8.35 ± 0.32
TAATAAGTATCAAAATGTACATGACAAAAATAATTT [XGTACX_site8961]	8.78 ± 0.4
TCTAAAAAAATTATATCACACATTATAAAGCATATT [CACACA_site4885]	8.19 ± 0.36
TATACACATAGACACACACACATACACGCACATACA [CACACA_site6908]	8.76 ± 0.49
TGATAAATTTTCACATGTACATATATAGAATAACCT [XGTACX_site2860]	8.8 ± 0.28
ATTAAATCATATGAATGTACGGATATATATATTTCC [XGTACX_site8650]	8.54 ± 0.36
ATTTGAAAAAATACTACACACCATATTGTTAATTTT [CACACA_site3829]	8.21 ± 0.35
AAGATTCATATAAAAAGTACAAAAAGAAAAAAATAA [XGTACX_site6033]	8.66 ± 0.5
ATATCTTCACTTATATGTACTTACATTTTTTTTTTT [XGTACX_site8696]	8.87 ± 0.56
ATAACTATATACATCTGTACATAATACATAGATAAA [XGTACX_site2795]	8.64 ± 0.59
ATTTGTATATAATATATATAATTTTTTTTTTTTGTT [XGTACX_negctrl_site425]	8.2 ± 0.31
TTTTTTTTTTTTTTTACACACATTTGAATAACTTTA [CACACA_site6810]	8.26 ± 0.49
TATATGGGATATATGTGTACATATAAAATATGTATC [XGTACX_site3365]	8.44 ± 0.34
AAAAGAATTAAAAAATGTACATATAATATATATATA [XGTACX_site6721]	9.41 ± 0.19
CTTAATATGAATAAAACACACATATATAATTTGTAA [CACACA_site5120]	8.24 ± 0.3
AAAAAAGAAGACATCTAAGTAATAGTAACAATGTAT [CACACA_negctrl_site1660]	8.72 ± 0.44
GACATATTATTCATGTGTACATATTATATGTATATA [XGTACX_site3442]	8.59 ± 0.3

Sequence	gcPBM binding intensity (ln)
TATAAATATACACCCACACACATATATAAATAAATA [CACACA_site7717]	8.93 ± 0.79
AAGAATTTAGAAGGCATGCACTTAAACATGCATATA	9.02 ± 0.2
CATATAATAAATAATACACACATATTGTAAATATAT [CACACA_site5734]	8.43 ± 0.44
AATTGAGTATCGTGAGTGCAAAACGTGGTTCAAAGA	9.06 ± 0.16
TAAAATAAAATAAAATGTACTTTCCTTTTGATAATA [XGTACX_site6288]	8.05 ± 0.4
GTAATGAACAAACACAAAAAAAAAAAAAAAATAATA [TGCATGCA_negctrl_site344]	8.38 ± 0.31
TTTTCCCTTACAGAAAAAAAAAAATTCCTAACCCCG [CACACA_negctrl_site650]	8.83 ± 0.65
TTATATATTTATAATCGTACAATAATTAACGTAAAA [XGTACX_site3206]	8.6 ± 0.3
ATATATTTTAGGAGAGTGCATTTAATATTATTTAAT [GTGCAC_site9444]	8.495 ± 0.021
TTTTTCTTTTTTTTTTCCTTTATCACATAAGAAAAA [CACACA_negctrl_site192]	8.62 ± 0.54
AAAATGAAGAAGTGCACACATATATATATTTATATA [CACACA_site507]	9.11 ± 0.2
AAGATATGAGGGAATACACACATATATATATATATA [CACACA_site1581]	10.2 ± 0.43
AAGAAAATAAATAATACACACAAGGATTTGTAAATA [CACACA_site690]	8.59 ± 0.29
CTTTTTTTTTAAAAATGTACACATTTTTGAAAATAC [XGTACX_site3127]	8.35 ± 0.28
ATATGTTTGATTTTTTTTTTTTTTTTTTTTATGTGT [CACACA_negctrl_site1001]	8.1 ± 0.51
AAAAAAAAAATTAAAAGTACAGAAAATAAATAAATA [XGTACX_site7470]	8.61 ± 0.38
TTAATACACCATAAAAGTACATAATATGATATTTAA [XGTACX_site8561]	8.23 ± 0.4
ATATATATAAATATATGTACATAAATATATTTGTAA [XGTACX_site6715]	8.47 ± 0.42
AATTAAACTTTGTTTTTGTTTTTTTTTTTTATATTT [CACACA_negctrl_site1316]	8.04 ± 0.43
TGGTGATATACGAAATGTACGCAAATCACAAAATAA [XGTACX_site8836]	8.68 ± 0.33
TCTTTAACAAGTTAAACACACATACCTATATACATA [CACACA_site7237]	8.51 ± 0.3
AAATAAAAATTAAAAAAATAGAAACGAATTGAATGC [TGCATGCA_negctrl_site365]	8.87 ± 0.26
CGCGTATAACGAAATTGTACAAAAAAAATTAAACAT [XGTACX_site6813]	8.9 ± 0.46

Sequence	gcPBM binding intensity (ln)
AACAATTTTTAAAGGTGTACAATATGTATATAAGAA [XGTACX_site254]	8.92 ± 0.3
ATTAAATTAAAATAATGTACTTAATACTTTTGCTTA [XGTACX_site8404]	8.16 ± 0.53
TCAACGATCACTCGGTGTACTATAAATGAGAGAATT [XGTACX_site1820]	8.53 ± 0.42
AATTTTGAGATGTGGTGTACACAAAATTAGTTAGAC [XGTACX_site7033]	9.23 ± 0.29
ATATATATATATAAAGGTACACATTTATTAAATATA [XGTACX_site7102]	10.1 ± 0.12
TATTTGCAATATTATACACACATTAGATATTGCAAA [CACACA_site7565]	8.65 ± 0.25
TAATATATATAACATATACACACGTTCATATATATA [CACACA_site462]	8.43 ± 0.35
AAAAAAAAAAAAAAATGTACATATATAATATTTATA [XGTACX_site5117]	8.34 ± 0.35
TACAAAATGTTATATCAATATAGATAAAAAAATGAA [XGTACX_negctrl_site285]	8.66 ± 0.55
AACAAATTAATTCTAGTGCAGGACGTATTTGTGTAC [GTGCAC_site9907]	8.87 ± 0.37
AAACAAATATATATATGTACTTATAAAAAAAAAAAT [XGTACX_site2211]	8.54 ± 0.45
TAAGGATATATATATTCACACACACCGGGAAATATA [CACACA_site8020]	8.83 ± 0.38
TTTTTATTTTTTGAAACACACACAAAAAAAATGATA [CACACA_site8564]	8.51 ± 0.4
CATTTTTTGCTTTCAACACACATACAATATATATAA [CACACA_site6127]	8.69 ± 0.49
CTTTATTTTTTATACACACACAATATGTATATATAT [CACACA_site3550]	8.69 ± 0.36
AAGGATCACGCACAAACACACATATTTATATTTATA [CACACA_site6405]	8.39 ± 0.33
TATATATGGAAAAGAGTCAAAAAGAAAAAAGAAAAA [CACACA_negctrl_site1374]	8.56 ± 0.62
TATGAAATATTTATACACAGAACTTCATAATTTTCA [TGCATGCA_negctrl_site509]	8.2 ± 0.42
TTTTTGTATTCTTCTTCTTCCAGACTACATTATGTC [XGTACX_negctrl_site235]	8.75 ± 0.45
ATATATTTAAAATTGACACACATTTAATGACATTTT [CACACA_site3112]	8.24 ± 0.33
